# According to the supplement of paper PMC8728848:
# This is one part of the list.
# Tests used:
# Test in all cases: glycan array binding signal (z-score within array); higher = stronger binding
# Details in all cases: glycan notation: IUPAC condensed, linker removed
# [1] = target: GlcNAc(b1-2)Gal(b1-3)GalNAc
# Summary of the method: (§1)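 Arrays were curated from the Consortium for Functional Glycomics database, 3228 in total, and kept only where the protein sequence was available. Binding is expressed as a within-array Z-score. This score was averaged across arrays of the same protein sequence at different concentrations or buffers and across linkers, and negative values can be read as non-binding.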
# [2] = target: GlcNAc(b1-2)Man(a1-3)[GlcNAc(b1-2)Man(a1-6)]Man(b1-4)GlcNAc(b1-4)GlcNAc
# Summary of the method: as §1
# [3] = target: GlcNAc(b1-2)Man(a1-3)[GlcNAc(b1-2)Man(a1-6)]Man(b1-4)GlcNAc(b1-4)[Fuc(a1-6)]GlcNAc
# Summary of the method: as §1
# [4] = target: GlcNAc(b1-2)Man(a1-3)[GlcNAc(b1-4)][GlcNAc(b1-2)Man(a1-6)]Man(b1-4)GlcNAc(b1-4)GlcNAc
# Summary of the method: as §1
# [5] = target: GlcNAc(b1-2)Man(a1-3)[GlcNAc(b1-4)][GlcNAc(b1-2)Man(a1-6)]Man(b1-4)GlcNAc(b1-4)[Fuc(a1-6)]GlcNAc
# Summary of the method: as §1
# [6] = target: GlcNAc(b1-2)[GlcNAc(b1-4)]Man(a1-3)[GlcNAc(b1-2)Man(a1-6)]Man(b1-4)GlcNAc(b1-4)GlcNAc
# Summary of the method: as §1
# [7] = target: GlcNAc(b1-2)[GlcNAc(b1-4)]Man(a1-3)[GlcNAc(b1-4)][GlcNAc(b1-2)Man(a1-6)]Man(b1-4)GlcNAc(b1-4)GlcNAc
# Summary of the method: as §1
# [8] = target: GlcNAc(b1-2)[GlcNAc(b1-4)]Man(a1-3)[GlcNAc(b1-4)][GlcNAc(b1-2)[GlcNAc(b1-6)]Man(a1-6)]Man(b1-4)GlcNAc(b1-4)GlcNAc
# Summary of the method: as §1
# [9] = target: GlcNAc(b1-2)[GlcNAc(b1-4)]Man(a1-3)[GlcNAc(b1-4)][GlcNAc(b1-2)[GlcNAc(b1-6)]Man(a1-6)]Man(b1-4)GlcNAc(b1-4)[Fuc(a1-6)]GlcNAc
# Summary of the method: as §1
# [10] = target: GlcNAc(b1-2)[GlcNAc(b1-6)]Man(a1-6)[GlcNAc(b1-2)Man(a1-3)]Man(b1-4)GlcNAc(b1-4)GlcNAc
# Summary of the method: as §1
# [11] = target: GlcNAc(b1-2)[GlcNAc(b1-6)]Man(a1-6)[GlcNAc(b1-2)Man(a1-3)]Man(b1-4)GlcNAc(b1-4)[Fuc(a1-6)]GlcNAc
# Summary of the method: as §1
# [12] = target: GlcNAc(b1-2)[GlcNAc(b1-6)]Man(a1-6)[GlcNAc(b1-4)][GlcNAc(b1-2)Man(a1-3)]Man(b1-4)GlcNAc(b1-4)GlcNAc
# Summary of the method: as §1
# GlcNAc(b1-3)Fuc = target: GlcNAc(b1-3)Fuc
# Summary of the method: as §1
# GlcNAc(b1-3)Gal = target: GlcNAc(b1-3)Gal
# Summary of the method: as §1
# [13] = target: GlcNAc(b1-3)Gal(b1-3)GalNAc
# Summary of the method: as §1
# GlcNAc(b1-3)Gal(b1-4)Glc = target: GlcNAc(b1-3)Gal(b1-4)Glc
# Summary of the method: as §1
# [14] = target: GlcNAc(b1-3)Gal(b1-4)GlcNAc
# Summary of the method: as §1
# [15] = target: GlcNAc(b1-3)Gal(b1-4)GlcNAc(b1-2)Man(a1-3)[GlcNAc(b1-3)Gal(b1-4)GlcNAc(b1-2)Man(a1-6)]Man(b1-4)GlcNAc(b1-4)GlcNAc
# Summary of the method: as §1
# [16] = target: GlcNAc(b1-3)Gal(b1-4)GlcNAc(b1-2)Man(a1-3)[GlcNAc(b1-3)Gal(b1-4)GlcNAc(b1-2)Man(a1-6)]Man(b1-4)GlcNAc(b1-4)[Fuc(a1-6)]GlcNAc
# Summary of the method: as §1
# [17] = target: GlcNAc(b1-3)Gal(b1-4)GlcNAc(b1-2)[GlcNAc(b1-3)Gal(b1-4)GlcNAc(b1-6)]Man(a1-6)[GlcNAc(b1-3)Gal(b1-4)GlcNAc(b1-2)Man(a1-3)]Man(b1-4)GlcNAc(b1-4)GlcNAc
# Summary of the method: as §1
# [18] = target: GlcNAc(b1-3)Gal(b1-4)GlcNAc(b1-3)Gal(b1-4)GlcNAc
# Summary of the method: as §1
# [19] = target: GlcNAc(b1-3)Gal(b1-4)GlcNAc(b1-3)Gal(b1-4)GlcNAc(b1-2)Man(a1-3)[GlcNAc(b1-3)Gal(b1-4)GlcNAc(b1-3)Gal(b1-4)GlcNAc(b1-2)Man(a1-6)]Man(b1-4)GlcNAc(b1-4)GlcNAc
# Summary of the method: as §1
# [20] = target: GlcNAc(b1-3)Gal(b1-4)GlcNAc(b1-3)Gal(b1-4)GlcNAc(b1-2)Man(a1-3)[GlcNAc(b1-3)Gal(b1-4)GlcNAc(b1-3)Gal(b1-4)GlcNAc(b1-2)Man(a1-6)]Man(b1-4)GlcNAc(b1-4)[Fuc(a1-6)]GlcNAc
# Summary of the method: as §1
# [21] = target: GlcNAc(b1-3)Gal(b1-4)GlcNAc(b1-3)Gal(b1-4)GlcNAc(b1-2)[GlcNAc(b1-3)Gal(b1-4)GlcNAc(b1-3)Gal(b1-4)GlcNAc(b1-6)]Man(a1-6)[GlcNAc(b1-3)Gal(b1-4)GlcNAc(b1-3)Gal(b1-4)GlcNAc(b1-2)Man(a1-3)]Man(b1-4)GlcNAc(b1-4)[Fuc(a1-6)]GlcNAc
# Summary of the method: as §1
# [22] = target: GlcNAc(b1-3)Gal(b1-4)GlcNAc(b1-3)Gal(b1-4)GlcNAc(b1-3)Gal(b1-4)GlcNAc(b1-2)Man(a1-3)[GlcNAc(b1-3)Gal(b1-4)GlcNAc(b1-3)Gal(b1-4)GlcNAc(b1-3)Gal(b1-4)GlcNAc(b1-2)Man(a1-6)]Man(b1-4)GlcNAc(b1-4)GlcNAc
# Summary of the method: as §1
# [23] = target: GlcNAc(b1-3)Gal(b1-4)GlcNAc(b1-3)Gal(b1-4)GlcNAc(b1-3)Gal(b1-4)GlcNAc(b1-2)Man(a1-3)[GlcNAc(b1-3)Gal(b1-4)GlcNAc(b1-3)Gal(b1-4)GlcNAc(b1-3)Gal(b1-4)GlcNAc(b1-2)Man(a1-6)]Man(b1-4)GlcNAc(b1-4)[Fuc(a1-6)]GlcNAc
# Summary of the method: as §1
# [24] = target: GlcNAc(b1-3)Gal(b1-4)GlcNAc(b1-3)Gal(b1-4)GlcNAc(b1-3)Gal(b1-4)GlcNAc(b1-2)[GlcNAc(b1-3)Gal(b1-4)GlcNAc(b1-3)Gal(b1-4)GlcNAc(b1-3)Gal(b1-4)GlcNAc(b1-6)]Man(a1-6)[GlcNAc(b1-3)Gal(b1-4)GlcNAc(b1-3)Gal(b1-4)GlcNAc(b1-3)Gal(b1-4)GlcNAc(b1-2)Man(a1-3)]Man(b1-4)GlcNAc(b1-4)[Fuc(a1-6)]GlcNAc
# Summary of the method: as §1
# [25] = target: GlcNAc(b1-3)Gal(b1-4)GlcNAc(b1-3)Gal(b1-4)GlcNAc(b1-3)Gal(b1-4)GlcNAc(b1-3)Gal(b1-4)GlcNAc(b1-2)Man(a1-3)[GlcNAc(b1-3)Gal(b1-4)GlcNAc(b1-3)Gal(b1-4)GlcNAc(b1-3)Gal(b1-4)GlcNAc(b1-3)Gal(b1-4)GlcNAc(b1-2)Man(a1-6)]Man(b1-4)GlcNAc(b1-4)GlcNAc
# Summary of the method: as §1
# [26] = target: GlcNAc(b1-3)Gal(b1-4)GlcNAc(b1-3)Gal(b1-4)GlcNAc(b1-3)Gal(b1-4)GlcNAc(b1-3)Gal(b1-4)GlcNAc(b1-2)Man(a1-3)[GlcNAc(b1-3)Gal(b1-4)GlcNAc(b1-3)Gal(b1-4)GlcNAc(b1-3)Gal(b1-4)GlcNAc(b1-3)Gal(b1-4)GlcNAc(b1-2)Man(a1-6)]Man(b1-4)GlcNAc(b1-4)[Fuc(a1-6)]GlcNAc
# Summary of the method: as §1
# [27] = target: GlcNAc(b1-3)Gal(b1-4)GlcNAc(b1-3)Gal(b1-4)GlcNAc(b1-3)Gal(b1-4)GlcNAc(b1-3)Gal(b1-4)GlcNAc(b1-2)[GlcNAc(b1-3)Gal(b1-4)GlcNAc(b1-3)Gal(b1-4)GlcNAc(b1-3)Gal(b1-4)GlcNAc(b1-3)Gal(b1-4)GlcNAc(b1-6)]Man(a1-6)[GlcNAc(b1-3)Gal(b1-4)GlcNAc(b1-3)Gal(b1-4)GlcNAc(b1-3)Gal(b1-4)GlcNAc(b1-3)Gal(b1-4)GlcNAc(b1-2)Man(a1-3)]Man(b1-4)GlcNAc(b1-4)[Fuc(a1-6)]GlcNAc
# Summary of the method: as §1
# [28] = target: GlcNAc(b1-3)Gal(b1-4)GlcNAc(b1-3)Gal(b1-4)GlcNAc(b1-3)GalNAc
# Summary of the method: as §1
# [29] = target: GlcNAc(b1-3)Gal(b1-4)GlcNAc(b1-3)GalNAc
# Summary of the method: as §1
# [30] = target: GlcNAc(b1-3)Gal(b1-4)GlcNAc(b1-3)[GlcNAc(b1-3)Gal(b1-4)GlcNAc(b1-3)]GalNAc
# Summary of the method: as §1
# [31] = target: GlcNAc(b1-3)Gal(b1-4)GlcNAc(b1-6)[Gal(b1-3)]GalNAc
# Summary of the method: as §1
# [32] = target: GlcNAc(b1-3)Gal(b1-4)GlcNAc(b1-6)[GlcNAc(b1-3)Gal(b1-3)]GalNAc
# Summary of the method: as §1
# [33] = target: GlcNAc(b1-3)Gal(b1-4)GlcNAc(b1-6)[GlcNAc(b1-3)]Gal(b1-4)GlcNAc
# Summary of the method: as §1
# GlcNAc(b1-3)GalNAc = target: GlcNAc(b1-3)GalNAc
# Summary of the method: as §1
# GlcNAc(b1-3)Man = target: GlcNAc(b1-3)Man
# Summary of the method: as §1
# [34] = target: GlcNAc(b1-3)[GlcNAc(b1-4)][GlcNAc(b1-6)]GlcNAc
# Summary of the method: as §1
# [35] = target: GlcNAc(b1-3)[GlcNAc(b1-6)]Gal(b1-4)GlcNAc
# Summary of the method: as §1
# [36] = target: GlcNAc(b1-3)[GlcNAc(b1-6)]GalNAc
# Summary of the method: as §1
# [37] = target: GlcNAc(b1-4)Gal(b1-4)GlcNAc
# Summary of the method: as §1
# GlcNAc(b1-4)GlcNAc = target: GlcNAc(b1-4)GlcNAc
# Summary of the method: as §1
# [38] = target: GlcNAc(b1-4)GlcNAc(b1-4)GlcNAc
# Summary of the method: as §1
# [39] = target: GlcNAc(b1-4)GlcNAc(b1-4)GlcNAc(b1-4)GlcNAc(b1-4)GlcNAc
# Summary of the method: as §1
binder,measurement,setting,value
rCnSL-A (Clitocybe nebularis) (protein) VNPNLPGPNDVFVGFRGTNNIVGAIYEKDGIKDTPLNNGADAEMGPGSYITDGLFTARIFASGSAGNNPGTTATVCKIYASGVQWRGAPKGYIPVAYFGNGPTAEQRRQTYLRTLGLPGTAIRFGNLNTNPGQGPTAPRQMVVPPGPLRSLLKASCFPAADTRLPQTLHYFEKRVDWNIITAADSQTWGH,glycan array binding signal (z-score),[1],-0.27
same,glycan array binding signal (z-score),[2],-0.256
same,glycan array binding signal (z-score),[3],0.029
same,glycan array binding signal (z-score),[4],-0.223
same,glycan array binding signal (z-score),[5],-0.26
same,glycan array binding signal (z-score),[6],-0.168
same,glycan array binding signal (z-score),[7],-0.22
same,glycan array binding signal (z-score),[8],-0.237
same,glycan array binding signal (z-score),[9],-0.26
same,glycan array binding signal (z-score),[10],-0.161
same,glycan array binding signal (z-score),[11],0.157
same,glycan array binding signal (z-score),[12],-0.278
same,glycan array binding signal (z-score),GlcNAc(b1-3)Fuc,-0.2
same,glycan array binding signal (z-score),GlcNAc(b1-3)Gal,-0.22
same,glycan array binding signal (z-score),[13],-0.231
same,glycan array binding signal (z-score),GlcNAc(b1-3)Gal(b1-4)Glc,-0.241
same,glycan array binding signal (z-score),[14],-0.251
same,glycan array binding signal (z-score),[15],-0.183
same,glycan array binding signal (z-score),[16],-0.206
same,glycan array binding signal (z-score),[17],-0.221
same,glycan array binding signal (z-score),[18],-0.196
same,glycan array binding signal (z-score),[19],0.451
same,glycan array binding signal (z-score),[20],0.016
same,glycan array binding signal (z-score),[21],-0.296
same,glycan array binding signal (z-score),[22],-0.315
same,glycan array binding signal (z-score),[23],0.045
same,glycan array binding signal (z-score),[24],-0.268
same,glycan array binding signal (z-score),[25],-0.218
same,glycan array binding signal (z-score),[26],-0.06
same,glycan array binding signal (z-score),[27],-0.215
same,glycan array binding signal (z-score),[28],-0.219
same,glycan array binding signal (z-score),[29],-0.314
same,glycan array binding signal (z-score),[30],-0.188
same,glycan array binding signal (z-score),[31],-0.232
same,glycan array binding signal (z-score),[32],-0.231
same,glycan array binding signal (z-score),[33],-0.298
same,glycan array binding signal (z-score),GlcNAc(b1-3)GalNAc,-0.24
same,glycan array binding signal (z-score),GlcNAc(b1-3)Man,-0.175
same,glycan array binding signal (z-score),[34],-0.22
same,glycan array binding signal (z-score),[35],-0.298
same,glycan array binding signal (z-score),[36],-0.281
same,glycan array binding signal (z-score),[37],-0.092
same,glycan array binding signal (z-score),GlcNAc(b1-4)GlcNAc,-0.208
same,glycan array binding signal (z-score),[38],-0.201
same,glycan array binding signal (z-score),[39],-0.217
